From article PMC2425476 (Nucleic Acids Research, 2008)

B1: δ subunit W279A mutant (natural protein)
chain: not shown
B2: δ subunit R277A mutant (natural protein)
chain: not shown
B3: δ subunit R283A mutant (natural protein)
chain: not shown
B4: δ subunit W279A/R277A double mutant (natural protein)
chain: not shown
B5: δ subunit W279A/R283A double mutant (natural protein)
chain: not shown
B6: δ subunit W279Y mutant (natural protein)
chain: not shown

The binders below were run against T1, γ subunit of the E. coli clamp loader (γ complex) (Escherichia coli).

| Binder | binding result |
| --- | --- |
| B1 | binds |

Target: T1, γ subunit of the E. coli clamp loader …
Remark: another data set of the same source

| Binder | binding result |
| --- | --- |
| B2 | binds |
| B3 | binds |
| B4 | binds |
| B5 | binds |
| B6 | binds |
